Source: the RNAGym collection of RNA variant scans (doi:10.7554/elife.90254)
Read counts are not given, so values of variants with three or more changes are uncertain.

B1: LINE1-full (parent)
chain: UACGUAGGUGGUUUUCCCCUGAUAGUGCUAAGGGGGCCUGGAAGUUUGGACUGGGCAGAGCUCAACACAGCGUGGCAAAGUGGCUGUGGCUAGACUGCCUCUCUGGAUUCCUCGUCACUCAGCAGGGCAUCUCUGAGAGAAAUGCC

Variants of: B1
Assay: self-cleavage, relative activity (ratio to wild type); higher = more cleavage; in vitro, sequencing; the parent is a self-cleaving ribozyme
U102A A129G A142G gave a self-cleavage of 1.69.
For G49A U52C U73C A124G, the self-cleavage was 0.4.
Work on A57G A59G A138G yielded a self-cleavage of 0.17.
With U12A U104A G105A A138G the self-cleavage was 1.55.
Work on U13C G80U A136G yielded a self-cleavage of 1.62.
Work on A2G U12A U23C G72A yielded a self-cleavage of 1.37.
Variant A69G C118A U130C has a self-cleavage of 0.5.
Work on U62C U96C A142G yielded a self-cleavage of 0.06.
Work on U13C G55C U85A yielded a self-cleavage of 0.08.
For U39A U62C A78G, the self-cleavage was 0.1.
With U20C A22G U104A U108C the self-cleavage was 1.7.
A42U A94G U96A gave a self-cleavage of 0.16.
In the case of G48A A107G U108C, the self-cleavage is reported as 1.27.
A64C A69G A94U A117U U119C showed a self-cleavage of 0.
In the case of U20A U73A C110U, the self-cleavage is reported as 1.38.
With A65U U85C U134C the self-cleavage was 0.23.
For A6U A129U U143C, the self-cleavage was 0.82.
In the case of U39C U52A C84U A140G, the self-cleavage is reported as 0.1.
Work on A50U U91C C146U yielded a self-cleavage of 0.41.
In the case of A50G U130C A142G, the self-cleavage is reported as 1.92.
U12C U47C A69G G125A A141U gave a self-cleavage of 0.47.
In the case of U45C U119C G135U, the self-cleavage is reported as 0.95.
In the case of A2G U109G A136G, the self-cleavage is reported as 1.11.
With A2G U12C U47C the self-cleavage was 0.24.
A50G A92G G125U showed a self-cleavage of 0.
In the case of A22G A107G A141G, the self-cleavage is reported as 1.59.
U52C G97A U112A gave a self-cleavage of 0.05.
In the case of U52C U96A U119C A142G, the self-cleavage is reported as 0.12.
For U5C U20C U115C, the self-cleavage was 2.76.
G36A A50G C56U A59G U73G showed a self-cleavage of 0.
U109C A138U A141G A142G showed a self-cleavage of 1.78.
A67G A79G U130C showed a self-cleavage of 0.42.
Variant A31G A43G A64U A67G has a self-cleavage of 0.17.
Variant U9A U52A U87C C103A G144A has a self-cleavage of 0.31.
In the case of G4U U73C A78G, the self-cleavage is reported as 1.1.
G35A A42U U45A G75A showed a self-cleavage of 0.6.
In the case of A31G A94G U100A U132C, the self-cleavage is reported as 0.
For U14C A124G A136G, the self-cleavage was 1.84.
A77U U96C A107U G127A gave a self-cleavage of 0.07.
Variant U14C A22G A92U U96C has a self-cleavage of 0.25.
For U23A U62C U100C A136G A138G, the self-cleavage was 0.
For G55A A79G A117U, the self-cleavage was 0.47.
With U13C U15C U52C the self-cleavage was 0.88.
In the case of U13C A67G A78G G105A U115C A117G, the self-cleavage is reported as 0.54.
With G34A G75A U102A A142G the self-cleavage was 1.04.
U12G U29A G72C A77U U85C A140G gave a self-cleavage of 0.18.
Work on U5C U9A A31G U96A U104C C113A C145U yielded a self-cleavage of 0.16.
In the case of G35A A42U U52C A79U A141G, the self-cleavage is reported as 0.3.
With U85A A92G U132C A136U the self-cleavage was 0.06.
For A92G U115C A142U, the self-cleavage was 0.
In the case of C16U A42G U100C A136U, the self-cleavage is reported as 1.02.
In the case of G75A A129U U134A U143C, the self-cleavage is reported as 1.12.
For A24G U104C A117C, the self-cleavage was 1.38.
In the case of A22U U62A U134A A138G, the self-cleavage is reported as 0.01.
U39A A64G A65G showed a self-cleavage of 0.
For U1C U20C A50G, the self-cleavage was 0.91.
For U15C U47A C111U, the self-cleavage was 1.74.
A78G G83A U96C gave a self-cleavage of 0.04.
With A2G U5C A31U A77U U87A A124G A129G the self-cleavage was 0.48.
In the case of U12G G55A U112C U143C, the self-cleavage is reported as 0.35.
In the case of G34U U47G A138G, the self-cleavage is reported as 0.76.
A31G U39C A64U gave a self-cleavage of 0.42.
Variant U20A U26C A57U U130A A140G has a self-cleavage of 0.
U15C A69U A121G A141U gave a self-cleavage of 0.
U108A U109A A129G showed a self-cleavage of 0.84.
U15C A78G C145U showed a self-cleavage of 1.05.
G34A A42G U52C gave a self-cleavage of 0.86.
In the case of U12G G34U U47C, the self-cleavage is reported as 1.04.
Variant U12G U100C U130A has a self-cleavage of 2.12.
U12C A65G A117U U143C showed a self-cleavage of 0.55.
Work on G35A G106A U112C U119C U132C U143A yielded a self-cleavage of 1.44.
Variant U39C U46C A64G has a self-cleavage of 0.
For A42G C56U A64U U96C U130C A138G, the self-cleavage was 0.06.
For C71U C120U A136G, the self-cleavage was 1.14.
C103U A136G U143C gave a self-cleavage of 1.64.
In the case of G48A A94G A107G U130C A136G, the self-cleavage is reported as 0.
With G60A U73C U109C A136G the self-cleavage was 0.02.
Work on A6G A78G U109A U115G yielded a self-cleavage of 0.47.
In the case of A43G A65G A138G, the self-cleavage is reported as 0.12.
With U1C A42U U112C the self-cleavage was 0.94.
With A22G U23A A69G G74A the self-cleavage was 0.
A50U A77G U87A U96C showed a self-cleavage of 0.
Variant U39C U108C U134A has a self-cleavage of 1.34.
U29C A50G C90U gave a self-cleavage of 0.08.
Work on G8U A43G A138G yielded a self-cleavage of 1.23.
With C16U U29C A138G the self-cleavage was 1.23.
For G35C A64G A67U G70A U85C A140G, the self-cleavage was 0.04.
With A31G A59G A121G the self-cleavage was 0.95.
For C37A A94G A121G, the self-cleavage was 0.21.
With U62C U81A G105U U134A the self-cleavage was 0.03.
With G32A A42G A65G the self-cleavage was 0.07.
U20C G35A A42G U91C showed a self-cleavage of 0.43.
U46A U119A A141G gave a self-cleavage of 1.74.
Work on A59G U96C U130C yielded a self-cleavage of 0.
U52A A59U U115C showed a self-cleavage of 0.62.
U52A A64G A77G showed a self-cleavage of 0.46.
In the case of A94G U102C A142G, the self-cleavage is reported as 0.18.
U9A U12G U100C showed a self-cleavage of 1.08.
In the case of C3U A79G U109C, the self-cleavage is reported as 0.46.
G25A U102C U115A U130A showed a self-cleavage of 1.36.
U46C A94G A107G gave a self-cleavage of 1.58.
For U26C G34C G58A, the self-cleavage was 0.1.
For A30U A94G U115C A138G, the self-cleavage was 0.
U81G U91A U108C gave a self-cleavage of 1.84.
Work on U13C C37U U73C U130G yielded a self-cleavage of 1.84.
A78U U81A U130A gave a self-cleavage of 2.88.
Work on U45C A57U A59G U100C yielded a self-cleavage of 0.14.
Variant U46A A57G U87A has a self-cleavage of 0.13.
U13C C28U A42G A57G A140U showed a self-cleavage of 0.68.
U115C U134C A136G showed a self-cleavage of 2.53.
U1C U73C A124U gave a self-cleavage of 1.31.
For A6G G7A A64G U96C A140G, the self-cleavage was 0.44.
A30G A67U U134C A138G showed a self-cleavage of 0.28.
U29C U85A U108C gave a self-cleavage of 0.23.
U15C C37A U62C U119C A141G showed a self-cleavage of 0.07.
In the case of G8A U45C U73C, the self-cleavage is reported as 1.45.
C71U G88A A92G showed a self-cleavage of 0.05.
With U5C U108C U119G the self-cleavage was 1.97.
With G10A A50G G126A the self-cleavage was 0.88.
Variant U26A U45C A57G has a self-cleavage of 1.31.
For G7A A50G U112C, the self-cleavage was 0.32.
A94G U119C U143C showed a self-cleavage of 0.5.
Work on U9C A31U U115A U119C yielded a self-cleavage of 0.32.
For G7A U13C U62C A77G, the self-cleavage was 0.13.
Variant C76A G114U A142G has a self-cleavage of 1.64.
Variant A78G U87C A138G has a self-cleavage of 0.15.
A64G A79G A140G gave a self-cleavage of 0.16.
For A22G U29A U47C, the self-cleavage was 0.51.
Work on U26C U45C A92G U134C C146U yielded a self-cleavage of 0.22.
Work on U12A U23A U81C yielded a self-cleavage of 1.69.
C38U G114A G135A showed a self-cleavage of 0.16.
For G8C U73A A78G A141G, the self-cleavage was 0.34.
For U100C U102C U115A U132C, the self-cleavage was 2.
A94U U100A A138G gave a self-cleavage of 0.23.
U29C U39A A129G showed a self-cleavage of 1.1.
In the case of A24G U29C U39A U46C U47A A64G U100A, the self-cleavage is reported as 1.53.
G11C C18U A50G U109C showed a self-cleavage of 0.48.
U12C A24G G36A A65G A69G U119C A124U A140G showed a self-cleavage of 0.
Work on U13C A57G G60A U102C yielded a self-cleavage of 0.17.
With U85C U100C U108C the self-cleavage was 0.
Variant U13C U47C U91C U96C G97C has a self-cleavage of 0.
For U1C A24C U81A U112C A129G, the self-cleavage was 1.6.
Work on C28U U91G G125A yielded a self-cleavage of 0.03.
In the case of U15G U62A G106U U108C, the self-cleavage is reported as 0.1.
In the case of A31G A79G G122A A136G G137A, the self-cleavage is reported as 0.29.
Variant A2U A57U U143C has a self-cleavage of 0.11.
In the case of U12C G34A G54A, the self-cleavage is reported as 0.24.
In the case of U13C C56U U102C C145A, the self-cleavage is reported as 0.07.
U73C U115C U143A gave a self-cleavage of 0.71.
For U12C A65G C123U, the self-cleavage was 0.04.
In the case of U13C U96C U100C U130C, the self-cleavage is reported as 0.33.
Variant C3A U73C A142C has a self-cleavage of 1.06.
U1C G72A A117G gave a self-cleavage of 0.51.
Work on A6G U23C A50G U132C yielded a self-cleavage of 1.67.
A65G U85A A117G gave a self-cleavage of 0.
Work on A57U G60A U87A C116U A117G A124G U143A yielded a self-cleavage of 0.01.
Work on U9C U26A U62C U96C U100A A107G yielded a self-cleavage of 0.
Variant U45A U52C U109C has a self-cleavage of 0.82.
G32A A107G G137U showed a self-cleavage of 0.
G44U A59G C111U U119C showed a self-cleavage of 0.07.
Work on U20C U130C A140G yielded a self-cleavage of 1.6.
With U20C A43U A65G A69U the self-cleavage was 0.73.
In the case of C98G C101U A129U, the self-cleavage is reported as 0.23.
In the case of G41U A64U C146U, the self-cleavage is reported as 0.38.
A22U U46C U62C C98U U132C showed a self-cleavage of 0.06.
With U15C A59U A67C U73C the self-cleavage was 0.19.
For U14C C56A A124U, the self-cleavage was 0.04.
